Source: the antibiotic and cytotoxicity screens of Wong et al. (2023)
This is one part of the list.

Legend:
HSkMC = human skeletal muscle cells; assay: cytotoxicity call (relative viability < 0.9); details: 10 µM
HepG2 = assay: cytotoxicity call (relative viability < 0.9); details: 10 µM
S. aureus RN4220 = assay: growth inhibition call (relative growth <= 0.2); details: 50 µM

C[C@@H]1CN([C@@H](C)CO)C(=O)c2cc(NC(=O)CCN3CCOCC3)ccc2O[C@@H]1CN(C)S(=O)(=O)c1ccc(F)cc1
inactive: cytotoxicity call (HSkMC) | cytotoxicity call (HepG2) | growth inhibition call (S. aureus RN4220)

C[C@H](CO)N1C[C@H](C)[C@H](CN(C)Cc2ccc(Oc3ccccc3)cc2)Oc2ccc(NC(=O)Nc3cccc4ccccc34)cc2CC1=O
inactive: cytotoxicity call (HSkMC) | cytotoxicity call (HepG2) | growth inhibition call (S. aureus RN4220)

COCCNC(=O)C[C@H]1C[C@H]2c3cc(NC(=O)COC)ccc3O[C@H]2[C@@H](CO)O1
inactive: cytotoxicity call (HSkMC) | cytotoxicity call (HepG2) | growth inhibition call (S. aureus RN4220)

O=C([O-])C(O)C(O)C(O)C(O)CO.[Na+] (configuration not stated)
inactive: cytotoxicity call (HSkMC) | cytotoxicity call (HepG2) | growth inhibition call (S. aureus RN4220)

CO[C@@H]1CN(C)C(=O)c2ccc(NS(=O)(=O)c3cn(C)cn3)cc2OC[C@@H](C)N(CCC(F)(F)F)C[C@H]1C
inactive: cytotoxicity call (HSkMC) | cytotoxicity call (HepG2) | growth inhibition call (S. aureus RN4220)

C[C@H](CO)N1C[C@H](C)[C@H](CN(C)S(=O)(=O)c2cn(C)cn2)Oc2cc(C3=CCCCC3)ccc2S1(=O)=O
inactive: cytotoxicity call (HSkMC) | cytotoxicity call (HepG2) | growth inhibition call (S. aureus RN4220)

C[C@@H]1CCCCO[C@@H](CN(C)C(=O)C2CCCCC2)[C@@H](C)CN([C@@H](C)CO)C(=O)c2cc(NC(=O)CCC(F)(F)F)ccc2O1
inactive: cytotoxicity call (HSkMC) | cytotoxicity call (HepG2) | growth inhibition call (S. aureus RN4220)

C=CCOC(=O)[C@@H]1[C@H]2C(=O)O[C@H](c3ccccc3)[C@H](c3ccccc3)N2[C@H](c2ccc(OCCOC(=O)[C@@H]3C[C@@H]4C(=O)N[C@@H](Cc5ccccc5)C(=O)N4[C@@H]3c3ccc(O)cc3)cc2)[C@@]12C(=O)Nc1ccccc12
inactive: cytotoxicity call (HSkMC) | cytotoxicity call (HepG2) | growth inhibition call (S. aureus RN4220)

C[C@@H]1CCCCO[C@@H](CN(C)C(=O)CCCN(C)C)[C@@H](C)CN([C@H](C)CO)C(=O)c2cc(N(C)C)ccc2O1
inactive: cytotoxicity call (HSkMC) | cytotoxicity call (HepG2) | growth inhibition call (S. aureus RN4220)
